# Measured values reported in the supplement of paper PMC3334620.
# The full ranking holds about 33,000 sequences; the median of “E-score (-0.5 to 0.5)” is about -0.036, and the highest 2% start at about 0.37. The list shows a part of the results.
# Biological target: T1, Yer064c (UniProt P40041)
# T1 sequence: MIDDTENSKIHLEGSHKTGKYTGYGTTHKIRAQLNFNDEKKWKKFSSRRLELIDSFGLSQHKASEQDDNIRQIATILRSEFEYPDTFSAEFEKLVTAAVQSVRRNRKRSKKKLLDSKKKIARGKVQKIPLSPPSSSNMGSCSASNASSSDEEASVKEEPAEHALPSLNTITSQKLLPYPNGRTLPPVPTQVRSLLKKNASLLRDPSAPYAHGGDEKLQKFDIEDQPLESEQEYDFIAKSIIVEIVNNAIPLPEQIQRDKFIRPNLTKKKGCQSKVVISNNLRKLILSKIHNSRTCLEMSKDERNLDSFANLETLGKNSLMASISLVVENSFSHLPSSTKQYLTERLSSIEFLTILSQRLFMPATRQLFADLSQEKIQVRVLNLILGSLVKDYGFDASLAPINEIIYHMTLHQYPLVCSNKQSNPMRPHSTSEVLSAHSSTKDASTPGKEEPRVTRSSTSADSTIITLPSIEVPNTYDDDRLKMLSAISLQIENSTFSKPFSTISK
# Assay: PBM E-score (8-mer binding enrichment) (E-score (-0.5 to 0.5)); higher = stronger / more preferred TF binding; most listed sequences are background and not binding sites
# Settings: protein concentration: 200 nM; construct: GST-full length
# Protocol: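 Universal 'all 10-mer' protein binding microarrays (Agilent AMADID 015681) probed with GST-tagged S. cerevisiae TFs (full-length or DBD) made by in vitro transcription/translation (PURExpress), about 100-200 nM. Bound TF was detected with fluorescent anti-GST. Each ungapped 8-mer (which stands for itself and its reverse complement) is scored by the PBM enrichment score (E-score), a modified Wilcoxon-Mann-Whitney statistic from -0.5 to +0.5, computed with the Universal PBM Analysis Suite. Scale: above 0.35 generally sequence-specific binding.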
row,Sequence,PBM E-score
1,CTGGTGGC,-0.138
2,CGCTAGTA,0.0198
3,ACTTCTTG,-0.107
4,AATCTCAG,0.00667
5,GCTTCACA,-0.298
6,GCTCAAAC,0.0109
7,GCGAGCAC,-0.0901
8,ATTATGAA,0.253
9,AGTCGCAT,0.365
10,CGTTTTCA,-0.152
11,GTGTTCGA,0.0564
12,AAACGTCC,-0.132
13,ATAAAATA,0.0161
14,CCGCCCCG,0.0462
15,ACGATGCG,-0.083
16,AAGTAGAT,0.00219
17,CGCTCACG,-0.0623
18,ACGTGAAT,-0.00715
19,ACTGCCTG,0.122
20,AACGTACG,-0.143
21,GCGGCTAC,-0.0969
22,CGTCTACC,-0.167

row,Sequence,PBM E-score
1,GTTCCGCA,0.0395
2,AGGTGGAC,-0.133
3,GAACGGTA,-0.0787
4,AGGGGTTC,-0.306
5,AATTGGCA,-0.155
6,ATCTTGAC,0.111
7,CCAGTACA,0.0592
8,CGTGAATC,0.351
9,GGTCCAGA,-0.177
10,CGTTGGTA,-0.149
11,CTGTATTA,0.084
12,AGTCTCAT,0.35
13,CACATGTA,0.12
14,CCCAGTTA,-0.121
15,ACCGCCCG,-0.298
16,AAGTCGGG,0.043
17,ATAATATC,0.0263
18,GACTTTGA,0.271
19,CCCAGTGA,0.0589
20,CTAGGGAA,0.0319
21,CTATTGGA,-0.0392
22,CTCGACAC,-0.0303

row,Sequence,PBM E-score
1,ACATGCAC,-0.134
2,CCGTAGGC,-0.119
3,GACAGCCC,-0.251
4,GTCACCGA,0.217
5,CTGATTAC,0.375
6,GGATAGTA,0.0259
7,TATTAGCA,0.0544
8,CGGACATA,-0.212
9,ATACGGCC,-0.0448
10,CCCCATCG,-0.149
11,GAGATGAC,0.367
12,GGTCGATA,-0.014
13,CGACTCCA,0.378
14,GTGGTGCA,-0.224
15,GCCGATCC,-0.297
16,GCCAAATA,-0.0624
17,AACCAGAC,0.00178
18,CCATCTGC,-0.0126
19,AGTGCAAC,0.016
20,GTGCTCGA,0.0425
21,GTGTGGTA,-0.0564
22,AAACGCAA,0.0476

row,Sequence,PBM E-score
1,GAGCATCC,-0.385
2,CGCAATAC,0.102
3,CCGTCCAG,-0.0948
4,CCGCGTAG,-0.0989
5,TAACGCAA,-0.0589
6,GTGCCATA,-0.327
7,GATGATGC,0.0169
8,GCTAAGCC,-0.0917
9,ACACAGGC,-0.0299
10,GAACGTTA,-0.277
11,GGATACTA,-0.124
12,AAGAGTGG,-0.242
13,GGAACCAA,-0.106
14,GATCCCCC,-0.4
15,GCGCATAC,-0.26
16,GGTCTAGA,0.0169
17,CATTACGG,-0.219
18,CACGGTAA,0.0166
19,GTTCCCAA,-0.0804
20,CCGATATA,-0.104
21,CTCCTCAA,-0.0008
22,CGCTAGCC,-0.305

row,Sequence,PBM E-score
1,AATTATTA,0.0705
2,CTCCCCAA,-0.00906
3,CCGTTCAG,-0.187
4,AGTTGCCG,-0.249
5,CTTAGGCC,-0.115
6,ATCTAAAG,0.0395
7,ACGTCTAA,0.0568
8,CCTTTTCG,-0.126
9,CGCAACAC,0.201
10,GCGCAACC,-0.199
11,GGCCAGAA,-0.177
12,CAGACGAA,-0.0171
13,CGCTTCGA,-0.105
14,CCGAGATA,0.121
15,CGAGCAAA,-0.197
16,AAACCGCG,-0.105
17,TCCCGGGA,-0.0321
18,ACTACTTA,0.236
19,ACAACAAA,-0.019
20,CCTCGGCA,-0.203
21,CTCTGGAA,0.00829
